The record followed here is PubChem BioAssay AID1240 (Sanford-Burnham Center for Chemical Genomics, 2008).

In all, about 50,000 compounds went through this assay and about 800 (1.6%) showed an effect of 50% or more. Some of the results follow.

The assay concerns the target Bcl-2-like protein 10 (Homo sapiens) (UniProt Q9HD36). Briefly: Phenotype converters, Bcl-B/TR3 peptide binding displacement, primary biochemical FP (AID 1240).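 Note: 0% = Bcl-B with tracer peptide and DMSO and 100% = tracer peptide lacking Bcl-B.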 The following applies: GST-Bcl-B / FITC-TR3 peptide fluorescence polarization; stronger effect = higher value; compound at 3.75 mg/L. For orientation: Fluorescence polarisation rises when a labelled molecule tumbles more slowly, as on binding a larger partner.
UniProt Q9HD36, sequence (Q9HD36 whole entry, looked up): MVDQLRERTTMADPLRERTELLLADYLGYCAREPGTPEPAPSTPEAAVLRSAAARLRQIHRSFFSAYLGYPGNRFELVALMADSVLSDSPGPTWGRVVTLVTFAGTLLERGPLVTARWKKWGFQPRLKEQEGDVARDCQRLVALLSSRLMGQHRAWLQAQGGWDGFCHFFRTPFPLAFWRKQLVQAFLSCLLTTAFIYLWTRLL
For the compound `O=C(Nc1ccc(NC(=S)NC(=O)c2ccco2)cc1)c1ccc(Br)cc1`, the displacement was determined as 20.1%.

In the case of `COc1ccc(-c2csc(N3C(=O)c4ccc(OC)c(OC)c4C3=O)n2)cc1`, the displacement was -1.9%.

With `Cc1ccc(/C=C/C(=O)Nc2cccc(Cl)c2C)o1`, the displacement was 7.8%.

As to `CN(C)c1ccc(NC(=O)N2CCOCC2)cc1`, the displacement amounted to 4.1%.

As to `Cc1cc(C(=O)Nc2ccc(C(=O)O)cc2)c(-c2ccccc2)o1`, the displacement turned out to be 6.6%.

With `CCOc1ccc(C=Nc2cccc3ncccc23)cc1`, the displacement was -7.1%.

On to `O=C(O)c1ccccc1NC1=C(Cl)C(=O)N(c2ccc(Cl)cc2)C1=O`, for which the displacement came out at 3.8%.

Take `Cc1cc(C=O)c(C)n1-c1ccc(Cl)c(Cl)c1`: the displacement was -12%.

With `Cc1ccc(C(=O)Nc2ccccc2C(=O)Nc2ccccn2)cc1`, the displacement was -4.3%.

In the case of `CC(=O)Oc1ccc(C(=O)N2c3ccccc3Sc3ccccc32)cc1`, the displacement was -7.2%.

Regarding `CCCCOc1ccc(NC(=O)C2CC(=O)N(c3ccccc3)C2)cc1` (stereo not drawn), the displacement is -5%.

As for `O=C(NC(=S)Nc1ccc2ccccc2c1)c1ccccc1Cl`, the displacement came to 3.4%.

Turning to `Cc1c(NC(=O)C(Sc2ccccc2)c2ccccc2)c(=O)n(-c2ccccc2)n1C` (stereo not drawn), the displacement was 0.1%.

`O=C(O)CC1S/C(=N/N=C/c2ccccc2O)N(c2ccc(O)cc2)C1=O` (stereo not drawn): the displacement was 15.4%.

As to `CCOc1ccc(N2C(=O)/C(=C/c3cccs3)SC2=S)cc1`, the displacement was -3.8%.

For the compound `COCCN1C(=O)C(=O)/C(=C(/O)c2ccccc2)C1c1cccc(OC)c1` (stereo not drawn), the displacement is -10.3%.

For `O=C(NCCc1ccccc1)c1nn2c(c1Br)NC(c1ccccc1)CC2C(F)(F)F` (stereo not drawn), the displacement was 11.9%.

`Cc1cc(N2C(=O)c3ccc(Oc4ccc([N+](=O)[O-])cc4)cc3C2=O)no1`: the displacement turned out to be 12.4%.

In the case of `Cc1ccc(C(=O)Nc2ccc3oc(-c4ccc(F)cc4Cl)nc3c2)cc1[N+](=O)[O-]`, the displacement is 12%.

Regarding `O=C1N/C(=N/N=C/c2ccco2)SC1Cc1ccc(F)cc1` (stereo not drawn), the displacement was -12.5%.

Turning to `N#Cc1c(/N=C\c2ccc(N3CCCCC3)c([N+](=O)[O-])c2)sc2c1CCCC2`, the displacement is -5.3%.

On to `O=c1[nH]c(SCc2ccccc2)nnc1-c1ccccc1`, for which the displacement was -3.8%.

In the case of `Cc1ccsc1C=NN1CCN(Cc2ccccc2)CC1`, the displacement was -4%.

In the case of `O=C(Nc1cccc([N+](=O)[O-])c1)c1ccc(Br)c(S(=O)(=O)NC2CCCCC2)c1`, the displacement was -15.6%.

Regarding `COc1cc2nc(-c3ccc4c(c3)C(=O)N(c3ccccc3)C4=O)oc(=O)c2cc1OC`, the displacement was -7%.

With `COc1cc(/C=C2\Sc3ccccc3C2=O)cc(OC)c1O`, the displacement is -14.6%.

`NC(=O)c1ccccc1NC(=O)CCCCC(=O)Nc1ccccc1C(N)=O`: the displacement was -13.4%.

For the compound `COc1ccc(C2NC(c3ccc(OC)cc3)C(c3ccccc3)C(=O)C2c2ccccc2)cc1` (stereo not drawn), the displacement came out at 14.6%.

For `Cc1ccc(C(=O)O)cc1N1C(=O)C2C3C=CC(C3)C2C1=O` (stereo not drawn), the displacement was 11.8%.

Regarding `COc1ccc(OC)c(C2NC(=O)NC(C)=C2C(=O)Nc2ccccc2C)c1` (stereo not drawn), the displacement turned out to be 11.9%.

Take `C/C(=N\N=C1\NC(=O)C(CC(=O)Nc2ccc(C)c(Cl)c2)S1)c1ccc([N+](=O)[O-])cc1` (stereo not drawn): the displacement is -3.9%.

`COc1ccc(C(=O)CC(=O)c2ccccc2O)cc1OC`: the displacement came out at 11%.

Consider `Cc1cc(C)c(NC(=O)Cc2ccccc2[N+](=O)[O-])c(C)c1`, for which the displacement worked out at 11.1%.

As for `CC(=O)c1cccc(NC(=O)c2cnn3c(C(F)(F)F)cc(-c4cccs4)nc23)c1`, the displacement was 3.1%.

As for `CCCc1nnc(NC(=O)CSc2ncn[nH]2)s1`, the displacement amounted to 15.3%.

`O=S(=O)(Nc1ccc(Br)cn1)c1ccc2ccccc2c1`: the displacement is 7%.

Consider `Cc1ccccc1NC1CC(C)N(C(=O)c2ccccc2)c2c(C)cccc21` (stereo not drawn), for which the displacement is -0.9%.

Consider `CCC(=O)Nc1nc2ccccc2n1Cc1ccc(Cl)cc1`, for which the displacement is -23%.

Regarding `O=[N+]([O-])c1cn(Cc2ccc(F)cc2)cn1`, the displacement came out at 1.7%.

On to `CCOC(=O)CNC(=O)c1cc(OCC)c(OCC)c(OCC)c1`, for which the displacement amounted to 3.3%.

On to `O=C(CC1S/C(=N\N=C\c2ccco2)NC1=O)Nc1ccc(C(=O)O)cc1` (stereo not drawn), for which the displacement is -0.3%.

As for `CCOc1ccc(C(NC(=O)Cc2cc(OC)c(OC)cc2Br)c2ccc(OC)cc2)cc1` (stereo not drawn), the displacement was -13.1%.

Consider `COc1ccc(-c2cc(C(=O)Nc3ccc(F)c([N+](=O)[O-])c3)c3ccccc3n2)cc1OC`, for which the displacement turned out to be 6.6%.

As for `CCc1ccccc1NC(=O)C(=O)NCCCO`, the displacement is -12.4%.

For `O=C(Nc1nnc(Cc2ccc(Cl)cc2)s1)c1ccccc1F`, the displacement was determined as 12.1%.

With `CCCNC(=S)Nc1c(C)n(C)n(-c2ccccc2)c1=O`, the displacement was found to be 2.5%.

As for `COC(=O)c1ccccc1NC(=O)Cn1c(SC)nc2ccccc21`, the displacement was 8.3%.

With `CC1=NN(c2ccccc2)C(=O)/C1=C\c1cc([N+](=O)[O-])ccc1N(C)C`, the displacement was found to be 10.6%.

With `CCc1ccccc1NC(=O)c1cc(-c2ccc(C)s2)nc2ccccc12`, the displacement was -7.3%.

Regarding `O=C(CSc1nnnn1-c1ccccc1)NCc1ccccc1`, the displacement is 2.6%.

For the compound `O=C(O)CN1C(=O)/C(=C\c2ccccc2Cl)SC1=S`, the displacement was 5%.

Regarding `COc1cccc(C2NC(=S)NC(C)=C2C(=O)Nc2ccccc2)c1` (stereo not drawn), the displacement worked out at 0.4%.

With `Cc1ccc(C(=O)Nc2ccc(S(=O)(=O)N3CCCC3)cc2)cc1`, the displacement was determined as 12.3%.

As to `COc1cc(C=NN2C(=O)C3C4C=CC(C5CC45)C3C2=O)cc(Br)c1O` (stereo not drawn), the displacement is -11%.

Turning to `CCOc1ccc(CN2CCN(C(=O)CC(C)C)CC2)cc1`, the displacement worked out at 11.9%.

On to `O=Cc1cccc(OCc2c(F)cccc2Cl)c1`, for which the displacement was -2.4%.

With `COc1ccc(C2=NN(C(=O)CCC(=O)O)C(c3ccc(OC)cc3)C2)cc1` (stereo not drawn), the displacement is -11.7%.

Take `O=C1C2C3C=CC(C4CC34)C2C(=O)N1c1cccc(Cl)c1` (stereo not drawn): the displacement was found to be 2.7%.

`Cc1cccc(C2=N/C(=C/c3ccc([N+](=O)[O-])cc3)C(=O)N2c2ccc(O)cc2)c1`: the displacement amounted to 10.3%.

Consider `Cc1ccc(-n2nc3ccc(NC(=O)c4ccc([N+](=O)[O-])cc4Cl)cc3n2)cc1`, for which the displacement turned out to be 3.2%.

For the compound `Cc1cccc(OCC(=O)Nc2ccc(OCc3ccccc3)cc2)c1C`, the displacement turned out to be 11.4%.

With `C=CCN1C(=O)/C(=C\c2ccc(-c3ccc(C(=O)OCC)cc3)o2)SC1=S`, the displacement was found to be 90.3%.

`CCN(CC)c1ccc(/C=C/C(=O)c2ccc(NC(C)=O)cc2)cc1`: the displacement was -58.9%.

Consider `CCCC(=O)Nc1sc(C(=O)N(CC)CC)c(C)c1C(=O)OC`, for which the displacement is -2.1%.

Take `COc1ccc(NC(=O)c2c(NC(=O)c3ccco3)sc(-c3ccccc3)c2C)cc1`: the displacement is -7%.

On to `O=C1C=C(c2c(O)ccc3ccccc23)c2ccccc2C1=O`, for which the displacement was determined as 1%.

Regarding `CN1CCN(c2c([N+](=O)[O-])c(=O)n(C)c3ccccc23)CC1`, the displacement was -4.8%.

With `Cc1cccc(C)c1OC(=O)c1ccc([N+](=O)[O-])cc1Cl`, the displacement was -3.6%.
